# Hit rate of the full screen: of about 370,000 compounds, about 150 (0.041%) were called active. The shares of active, inactive and inconclusive entries below differ from those in the screen. Calls come from the whole dose curve; as a rule, active = well fitted inhibition curve with a large enough effect; inconclusive = small, poorly fitted or top-dose-only effect; inactive = flat fitted curve, though single readings scatter. No potency is given beside an inconclusive call; the fits are too rough.
# Molecular target: Beta-lactamase (Escherichia coli (strain K12)) (UniProt P00811)
# Test: qHTS Inhibitors of AmpC Beta-Lactamase (assay with detergent); note: nearly all actives have a fitted effect of over 25% in size;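 for activity change, negative = inhibition: 0% = no-compound wells and -100% = no-enzyme wells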
# Details: AmpC hydrolysis of nitrocefin, absorbance 480 nm, 0.01% Triton; activity change, negative = inhibition: at 114 µM (top of the series)
# Procedure, shortened: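 AmpC (5.3 nM in the dispensed reagent) in 20 mM phosphate pH 7.0 with 0.01% (detergent screen) or 0.0001% Triton X-100 was preincubated with compounds for 15 min at room temperature. Nitrocefin was then added from an 800 uM solution, and hydrolysis was followed at 480 nm.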
# Potency is the fitted concentration of half-maximal effect; tags give direction and shape of the fitted curve.
# UniProt P00811, sequence (P00811 whole entry, looked up): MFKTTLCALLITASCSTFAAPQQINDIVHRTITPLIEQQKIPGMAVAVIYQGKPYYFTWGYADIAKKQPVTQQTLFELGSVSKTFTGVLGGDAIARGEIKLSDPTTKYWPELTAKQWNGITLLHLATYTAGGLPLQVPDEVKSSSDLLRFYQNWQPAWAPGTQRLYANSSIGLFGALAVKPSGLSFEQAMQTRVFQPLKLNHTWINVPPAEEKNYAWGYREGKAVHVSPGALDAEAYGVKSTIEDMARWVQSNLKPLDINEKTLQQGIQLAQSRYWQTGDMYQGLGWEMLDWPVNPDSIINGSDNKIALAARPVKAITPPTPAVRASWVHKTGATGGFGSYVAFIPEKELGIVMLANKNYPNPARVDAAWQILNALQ
Structure (SMILES),Potency,"activity change, negative = inhibition"
CC(Sc1nnc(-c2ccccc2Br)o1)C(=O)N1CCOCC1 (centres undefined),"inconclusive [inhibitor, full curve, poor fit]",
CC1CCCC(C)N1CC(O)COc1ccc(Cl)cc1 (centres undefined),"inconclusive [inhibitor, single point]",
Cc1onc(-c2ccccc2)c1C(=O)Nc1nnc(COc2ccc(Cl)cc2)s1,"inconclusive [inhibitor, single point]",
CCOC(=O)c1ccc(NC(=O)CN2C(=O)C(=O)N(CC(C)C)C2=O)cc1,"inconclusive [inhibitor, full curve, poor fit]",
Oc1ccc(-c2nc(-c3ccc(F)cc3)c(-c3ccncc3)[nH]2)cc1,"inconclusive [inhibitor, full curve]",
CCCCN(C(=O)c1ccc(N2CCCC2=O)cc1)c1c(N)n(CCCC)c(=O)[nH]c1=O,"inconclusive [inhibitor, full curve, poor fit]",
O=C(CCS(=O)(=O)Cc1ccccc1)N1CCN(c2ccc([N+](=O)[O-])cc2)CC1,"inconclusive [inhibitor, full curve, poor fit]",
NNC(=O)CN1CCN(c2ncc(C(F)(F)F)cc2Cl)CC1,"inconclusive [inhibitor, full curve, poor fit]",
CCN(CC)C(=O)CS(=O)(=O)CC(=O)Nc1cc(OCCOC)c(Cl)cc1Cl,,inactive: 4.95%
CC(Sc1ncn[nH]1)C(=O)Nc1ccc(Cl)cn1 (centres undefined),"inconclusive [inhibitor, single point]",
Nc1nc(NCCN2CCOCC2)nc(NCc2ccccc2)c1[N+](=O)[O-],,inactive: 2.14%
O=C(N/N=C/c1cccnc1)c1cc(O)c(O)c(O)c1,,inactive: -0.0958%
COc1ccc(-n2c(NNC(C)=O)nc3sc4c(c3c2=O)CCCC4)cc1,"inconclusive [inhibitor, full curve, poor fit]",
COC(C(=O)N/N=C(\C)c1ccc(O)cc1)c1ccccc1 (centres undefined),"inconclusive [inhibitor, full curve, poor fit]",
Cc1ccc(/C=N/NC(=O)CSc2nc3ccccc3c(=O)n2-c2ccccc2C)s1,"inconclusive [inhibitor, single point]",
Cc1ccccc1NC(=O)Nc1ccc2c(c1)CCC2,"inconclusive [inhibitor, full curve]",
Cc1c(Cl)cccc1NC(=O)Nc1ccc(C(=O)N2CCCC2)cc1,"inconclusive [inhibitor, single point]",
O=C(CSc1nc2ccsc2c(=O)n1Cc1ccc(F)cc1)NCc1ccc(Cl)cc1,,inactive: -3.33%
COc1cc(/C=N/N(C)c2ccccc2)cc(Cl)c1O,"inconclusive [inhibitor, full curve, poor fit]",
COc1ccc(CCN(C)C2CCCN(C(=O)CCSC)C2)cc1OC (centres undefined),"inconclusive [inhibitor, full curve, poor fit]",
COC(=O)Nc1ccc2ncn(C)c(=O)c2c1,"inconclusive [inhibitor, partial curve, poor fit]",
CS(=O)(=O)N1CCc2cc(-c3csc(NC(=O)Cc4cccs4)n3)ccc21,"inconclusive [inhibitor, single point]",

Structure (SMILES),Potency,"activity change, negative = inhibition"
CC(C)C1Nc2c(O)cc(Cl)c([N+](=O)[O-])c2C2C=CCC21 (centres undefined),,inactive: -4.3%
O=C(COc1ccc2c3c(c(=O)oc2c1)CCC3)N[C@@H](CSCc1ccccc1)C(=O)O,"inconclusive [inhibitor, partial curve]",
CCN(CC)CCNC(=O)CCn1c(=O)c2cccn2c2cccnc21,,inactive: -9.86%
Cn1c(=O)c2c(nc(SCCN3CCOCC3)n2C)n(C)c1=O,,inactive: -21.6%
OC(CCc1cccc(Cl)c1)c1cccs1 (centres undefined),,inactive: -7.59%
O=C(NC1CCCc2ccccc21)C1CCN(C(=O)c2sccc2-n2cccc2)CC1 (centres undefined),"inconclusive [inhibitor, partial curve, poor fit]",
CC(SCC(=O)O)c1nc2ccccc2[nH]1 (centres undefined),"inconclusive [inhibitor, single point]",
O=C(Nc1ccccc1N1CCCCC1)c1ccc(F)c(S(=O)(=O)N2CCOCC2)c1,"inconclusive [inhibitor, partial curve]",
COc1ccc2ccc3c(c2c1)N=CC1(O3)N(C)c2ccccc2C1(C)C (centres undefined),"inconclusive [inhibitor, full curve, poor fit]",
CCCNC(=O)NC(=O)COC(=O)c1ccc(OC)c(S(=O)(=O)N2CCCc3ccccc32)c1,,inactive: -9.32%
Cc1ccc(C)c(NC(=O)C2CC(=O)N(C3CCCCC3)C2)c1 (centres undefined),"inconclusive [inhibitor, full curve, poor fit]",
CC(C)c1ccc(/C=C2\SC(=O)N(CC(=O)NCCCn3ccnc3)C2=O)cc1,,inactive: 3.37%
CCc1nc2ccc(C(=O)N3CCN(c4ccccc4F)CC3)cc2nc1CC,inactive,
CCCc1ccc(-c2ccc(F)c(N)c2)nc1,"inconclusive [inhibitor, partial curve, poor fit]",
COc1ccc2[nH]c(C(=O)N/N=C/c3ccccc3OC)cc2c1,"inconclusive [inhibitor, full curve, poor fit]",
CCOC(=O)C1=C(CN2CCN(c3ccc(Cl)cc3)CC2)NC(=O)NC1c1ccc(OC)cc1 (centres undefined),,inactive: -2.68%
Cc1ccc(CSc2c(C)cnc3c2c(=O)n(C)c(=O)n3C)cc1,,inactive: 3.98%
COC(OC)c1ccnc(-c2ccc(OC(C)=O)cc2)n1,"inconclusive [inhibitor, full curve, poor fit]",
CC(=O)c1ccc(NC(=O)Cn2nc(C(F)(F)F)c3c2CCC3)cc1,,inactive: 22.1%
COC(=O)c1cc(Br)c(=O)n(-c2ccccc2OC)c1,"inconclusive [inhibitor, full curve]",
O=C1c2ccccc2C(=O)N1CCSC(=S)N1CCOCC1,,inactive: 6.88%
CC(C)OC(=O)CC(=O)c1sc2nc3c(cc2c1N)CN(C)CC3,"inconclusive [inhibitor, partial curve, poor fit]",

# From PubChem BioAssay AID485294 (National Center for Advancing Translational Sciences (NCATS), 2010)
